Assay results published in PubChem BioAssay AID1159614 (National Center for Advancing Translational Sciences (NCATS), 2016).
Hit rate of the full screen: of about 45,000 compounds, about 65 (0.1%) were called active. The call rests on the fitted dose curve; in most records, active means well fitted activation curve with a large enough effect; inconclusive means small, poorly fitted or top-dose-only effect; inactive means no such curve, though single readings can be large or run the other way. The list shows a part of the results.

What follows are compounds tested against Galactocerebrosidase (Homo sapiens) (UniProt P54803) (assay: A Novel Cell-Based Assay to Identify Small Molecules for B -Galactocerebrosidase). Conditions: 145M-Twi-hGALC-G270D cells (Twitcher mouse brain line with human GALC G270D), HMU-beta-Gal fluorescence, 48 h; series mostly up to 57.5 µM; activation: at the top concentration.
In short: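 Brain-derived Twitcher mouse 145M-Twi cells stably expressing human GALC-G270D or wild-type GALC, treated live, then residual GALC activity read by fluorescence of HMU-b-Gal substrate (0.1 mM final) in citrate-phosphate buffer pH 5.2 with sodium taurocholate. Signal increase indicates enhancement.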
Further: nearly all actives have a fitted effect of over 65% in size.
Potency means the concentration at half of the fitted maximal effect.
Wherever activation is given: 0% is about no effect.

Chain of UniProt P54803 (P54803 whole entry, looked up): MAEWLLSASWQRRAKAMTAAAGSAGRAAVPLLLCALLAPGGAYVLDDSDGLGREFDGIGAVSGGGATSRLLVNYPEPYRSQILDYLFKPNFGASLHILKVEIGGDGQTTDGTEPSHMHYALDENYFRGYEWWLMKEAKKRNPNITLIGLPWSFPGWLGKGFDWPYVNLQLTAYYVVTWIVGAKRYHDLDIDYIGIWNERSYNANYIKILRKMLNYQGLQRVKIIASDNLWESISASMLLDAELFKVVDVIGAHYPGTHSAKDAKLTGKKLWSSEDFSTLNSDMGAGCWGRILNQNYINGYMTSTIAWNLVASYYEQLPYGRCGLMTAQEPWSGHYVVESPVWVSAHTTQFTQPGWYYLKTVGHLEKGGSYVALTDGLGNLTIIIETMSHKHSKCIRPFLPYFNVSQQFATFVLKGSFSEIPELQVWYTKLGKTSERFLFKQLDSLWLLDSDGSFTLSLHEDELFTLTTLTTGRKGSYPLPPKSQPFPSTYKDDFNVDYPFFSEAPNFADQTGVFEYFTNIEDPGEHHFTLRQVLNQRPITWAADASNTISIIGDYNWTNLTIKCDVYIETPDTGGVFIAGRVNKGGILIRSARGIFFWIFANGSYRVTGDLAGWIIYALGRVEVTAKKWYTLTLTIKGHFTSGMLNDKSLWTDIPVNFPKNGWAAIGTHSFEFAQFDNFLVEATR

Row | SMILES | activation | Potency
1 | COc1ccc(C2CC(=O)c3cnc4c(-c5ccccc5)c(C)nn4c3C2)cc1OC (stereo not drawn) | inactive: -4.3% | 
2 | CCOC(=O)Cn1c(=O)n(C2CCCCC2)c2nc(-c3ccc(OCC)cc3)nc(C(N)=O)c21 | inactive: 10.8% | 
3 | CSc1ccc(CCNC(=O)c2ccc3c(c2)nc2n3CCCCC2)cc1 | inactive: -13.7% | 
4 | O=C(CSc1nccn1-c1ccc(Cl)cc1)Nc1cccc2ccccc12 | inactive: -6.61% | 
5 | C/C(=C(\CCO)SS/C(CCO)=C(\C)N(C=O)Cc1cnc(C)nc1N)N(C=O)Cc1cnc(C)nc1N | inactive: -5.43% | 
6 | COC(=O)c1ccc(NS(=O)(=O)c2c(C)nc3sccn3c2=O)cc1 | inactive: -3.38% | 
7 | COc1cccc(-n2ccnc2SCC(=O)Nc2ccc(Cl)c(Cl)c2)c1 | inactive: -17.3% | 
8 | COc1ccc(CNC(=O)C(C)Sc2nc(-c3ccccc3)cc(C(F)(F)F)n2)cc1 (stereo not drawn) | inactive: -2.28% | 
9 | O=C1c2ccccc2C(=O)C1c1ccccc1 | inactive: -9.96% | 
10 | CCOc1cc(C(=O)NCc2ccc3c(c2)CCN3C(=O)c2ccc(F)cc2)cc(OCC)c1OCC | inactive: -14.7% | 
11 | O=C(NC1CCCC1)c1ccc(CSc2nc3ccncc3n2Cc2cccc(F)c2)cc1 | inactive: -11.1% | 
12 | CCCCOc1ccc(C(=O)Nc2ccc3oc(-c4cccnc4)nc3c2)cc1 | inactive: -18.8% | 
13 | COc1ccc(OCC(=O)N2CCC(c3nc4ccccc4s3)CC2)cc1 | inactive: -8.97% | 
14 | O=C(Cn1ccnc1[N+](=O)[O-])NCc1ccccc1 | inactive: -6.99% | 
15 | CCc1ccccc1NC(=O)C1CCN(S(=O)(=O)c2ccccc2)CC1 | inactive: 13.5% | 
16 | CC(C)OCCCNC(=O)c1cn(C)c2ccc(S(=O)(=O)N3CCCCCC3)cc2c1=O | inactive: -10.7% | 
17 | Cc1cccc(C(=O)Nc2ccc(-c3nc4ncccc4o3)cc2C)c1 | inactive: -15% | 
18 | CCc1ccc(C(=O)c2cnc3ccc(F)cc3c2S(=O)(=O)c2ccccc2)cc1 | inactive: -7.86% | 
19 | CCn1ccc2cc(S(=O)(=O)N3CCC(C(=O)NCCc4ccccc4Cl)CC3)ccc21 | inactive: -12.2% | 
20 | Cc1c2cnn(CC(=O)NCC(C)c3ccccc3)c(=O)c2c(C)n1Cc1cccc(Cl)c1 (stereo not drawn) | inactive: -9.4% | 
21 | COc1ccccc1Cn1cc(C(=O)c2ccc(Cl)cc2)c(=O)c2ccccc21 | inactive: -1.01% | 
22 | Cc1cccc(S(=O)(=O)c2cn(Cc3ccccc3)c3cc(N4CCOCC4)c(F)cc3c2=O)c1 | inactive: -21% | 
23 | O=C(COc1ccccc1Cl)OCc1cc(=O)n2nc(C3CCCCC3)sc2n1 | inactive: -17.7% | 
24 | Cc1ccc(CNC(=O)c2ccc3c(c2)c(C)c(C)n3Cc2ccccc2)o1 | inactive: -7.79% | 
25 | Cc1cccc(N2CCN(C(=O)C3CCCN(S(=O)(=O)c4ccc5c(c4)oc(=O)n5C)C3)CC2)c1C (stereo not drawn) | inactive: -9.3% | 

Row | SMILES | activation | Potency
26 | CCCCOc1ccc(C(=O)NCCc2csc(-c3cccc(F)c3)n2)cc1 | inactive: -14.6% | 
27 | CCCCC/C(C=O)=C\c1ccccc1 | inactive: -13.7% | 
28 | CCCn1c(=O)c2sccc2n2c(CCCC(=O)NC3CCC(C)CC3)nnc12 (stereo not drawn) | inactive: -1.16% | 
29 | CC(C)N=C(N)/N=C(\N)Nc1ccc(Cl)cc1 | inactive: -19.7% | 
30 | Cc1ccc(-n2ncc(C(=O)NCc3cccs3)c2C2CCN(C(=O)OC(C)(C)C)CC2)cc1 | inactive: -8.67% | 
31 | CCc1cccc2c(-c3ccccc3)nc(SCC(=O)Nc3ccccc3OC)nc12 | inactive: 11.8% | 
32 | Clc1ccc2c(c1)C(N1CCNCC1)=Nc1ccccc1O2 | inactive: -13.8% | 
33 | COc1ccccc1NC(=O)C(C)Sc1nnc2ccc3ccccc3n12 (stereo not drawn) | inactive: -12.7% | 
34 | Cc1ccc(CNC(=O)CN2C(=O)CCn3nc(-c4ccccc4)cc32)cc1 | inactive: -20.5% | 
35 | COc1ccc(OC)c(CCNC(=O)CCc2cn(Cc3cc(C)ccc3C)c3ccccc23)c1 | inactive: -46.6% | 
36 | O=C(O)CCc1nc(-c2ccccc2)c(-c2ccccc2)o1 | inactive: -7.39% | 
37 | O=C(Cn1c(=O)c2cccn2c2ccc(F)cc21)N1CCN(c2ccccc2F)CC1 | inactive: -17.7% | 
38 | Cc1ccc(Cl)cc1NS(=O)(=O)c1ccc2c(c1)NC(=O)CCS2 | inactive: -14% | 
39 | COc1ccc(Br)cc1CNC(=O)c1cnc2sc(N3CCCC3)nn2c1=O | inactive: 8.95% | 
40 | COc1ccc(C(=O)N(Cc2cc(OC)c(OC)c(OC)c2)c2ccccn2)cc1 | inactive: -33.1% | 
41 | O=C(Cn1c(=O)nc(-c2ccccc2)c2ccccc21)NCCc1ccc(Cl)cc1 | inactive: -0.204% | 
42 | CN1CCN(C(CNC(=O)c2ccccc2F)c2ccc3c(c2)OCO3)CC1 (stereo not drawn) | inactive: -6.11% | 
43 | Fc1ccc(-n2ncc3c(NCCCn4ccnc4)ncnc32)cc1 | inactive: 3.27% | 
44 | Cc1ccc(C)c(NC(=O)Cn2nnc(C(=O)NCc3ccccc3Cl)c2N)c1 | inactive: -3.38% | 
45 | COc1cccc(C2NC(=O)c3n[nH]c(-c4cccs4)c32)c1 (stereo not drawn) | inactive: -12.1% | 
46 | Cc1cccc(-n2cc(-c3ccccc3)c3c(N4CCC(C)CC4)ncnc32)c1 | inactive: -6.14% | 
47 | CCCCN(CC)CCNC(=O)CCn1cnc2onc(-c3ccc(F)cc3)c2c1=O | inactive: -15.2% | 
48 | COc1ccc(NC(=O)c2sc3nc(-c4cc5ccc(OC)cc5oc4=O)[nH]c(=O)c3c2C)cc1 | inactive: -18.7% | 
49 | COc1cc(NC(=O)NCC2CCN(Cc3ccccc3Cl)CC2)cc(OC)c1OC | inactive: -5.89% | 
50 | COc1ccc(-c2cn3nc(N4CCCC(C(=O)Nc5cc(C)ccc5C)C4)sc3n2)cc1 (stereo not drawn) | inactive: 0.628% | 

Row | SMILES | activation | Potency
51 | Cc1cc2[nH]c(=O)c(=O)[nH]c2cc1S(=O)(=O)N1CCN(c2cccc(C(F)(F)F)c2)CC1 | inactive: -2.38% | 
52 | Cc1ccc2c(c1)C(=O)OC(C(=O)Nc1ncc(Cc3ccc(C(C)C)cc3)s1)C2 (stereo not drawn) | inactive: -17.9% | 
53 | CCN(C(=O)CCS(=O)(=O)c1cc2[nH]c(=O)c(=O)[nH]c2cc1C)c1ccccc1 | inactive: -1.15% | 
54 | COc1ccc(-c2noc(N3CCC(C(=O)Nc4ccc(F)cc4Cl)CC3)n2)cc1 | inactive: -2.84% | 
55 | CCOc1ccc(C(c2c(O)cc(C)n(CCOC)c2=O)N2CCN(c3ccccc3)CC2)cc1 (stereo not drawn) | inactive: -14% | 
56 | CCC1CCCCN1CCCNC(=O)c1[nH]c2ccccc2c1Sc1ccc(Cl)cc1 (stereo not drawn) | inactive: -5.37% | 
57 | Cc1c2cnn(CC(=O)N3CCCCC3)c(=O)c2c(C)n1Cc1ccc(F)cc1 | inactive: -13.1% | 
58 | COc1cccc(CNC(=O)C(CC(C)C)NS(=O)(=O)c2ccc3c(c2)oc(=O)n3C)c1 (stereo not drawn) | inactive: -8.47% | 
59 | CCC(Sc1nc2ncccc2[nH]1)C(=O)Nc1cccc(OC)c1 (stereo not drawn) | inactive: -8.71% | 
60 | Cc1ccc(N(CC(=O)N2CCN(c3ccc(Cl)cc3)CC2)S(=O)(=O)c2c(C)nn(C)c2C)cc1 | inactive: -11% | 
61 | CCCN(CCC)C(=O)Cn1c(=O)n(-c2cccc(OC)c2)c(=O)c2c(C)c(C(=O)N(C)C)sc21 | inactive: -12.5% | 
62 | Cc1ccc2sc(N3CCN(C(=O)CCS(=O)(=O)c4ccc(Cl)cc4)CC3)nc2c1C | inactive: -22.6% | 
63 | O=C(NCCc1ccc(F)cc1)C(=O)NCC(c1cccs1)S(=O)(=O)c1ccc(F)cc1 (stereo not drawn) | inactive: -3.55% | 
64 | Cc1ccc(-c2cn3nc(N4CCCC(C(=O)Nc5ccc(F)cc5)C4)sc3n2)cc1 (stereo not drawn) | inactive: 1.28% | 
65 | COc1ccc(CNC(=O)Cn2ncc3c4ccccc4n(Cc4cccc(Cl)c4)c3c2=O)cc1 | inactive: -10.7% | 
66 | CC(C)(Oc1ccc(CCNC(=O)c2ccc(Cl)cc2)cc1)C(=O)O | inactive: -15.2% | 
67 | OCCN1CCN(CCCN2c3ccccc3Sc3ccc(C(F)(F)F)cc32)CC1 | inactive: -12.7% | 
68 | Cc1ccc(C)c(S(=O)(=O)c2cn(C)c3cc(N4CCCCC4C)c(F)cc3c2=O)c1 (stereo not drawn) | inactive: 7.6% | 
69 | COc1ccc(OC)c(NCc2cccn2-c2nnc(N3CCCCC3)s2)c1 | inactive: -17.2% | 
70 | CN1CCc2c(sc3c2C(=O)NC(c2ccc(OC(=O)c4ccccc4)cc2)N3)C1 (stereo not drawn) | inactive: -21.2% | 
71 | Cc1ccc(NC(=O)C(Cc2ccccc2)n2cccc2)cc1 (stereo not drawn) | inactive: -8.12% | 
72 | COc1ccccc1CNC(=O)C1CCCN(C(=O)c2cnn(-c3ccc(F)cc3)c2-n2cccc2)C1 (stereo not drawn) | inactive: -7% | 
73 | COCCCn1c(=O)c2sccc2n2c(CCCC(=O)Nc3cc(C)cc(C)c3)nnc12 | inactive: -12.7% | 
74 | COc1ccc(C(=O)NCCn2cc(SCC(=O)Nc3ccc(C)cc3)c3ccccc32)cc1 | inactive: -12.2% | 
75 | Cc1ccc(CNC(=O)NCc2noc3ccc(C)cc23)cc1 | inactive: -14.5% | 

Row | SMILES | activation | Potency
76 | Cc1cccc(-c2nc3c4ccccc4nc(N4CCN(c5ccccc5F)CC4)n3n2)c1 | inactive: 2.89% | 
77 | Cn1c(=O)c2c(-c3ccc(Cl)cc3)n(Cc3ccc(Cl)cc3)cc2n(C)c1=O | inactive: -8.5% | 
78 | COc1ccc(C)cc1NC(=O)c1ccc2c(=O)n3c(nc2c1)CCCCC3 | inactive: 4.53% | 
79 | c1ccc(CC2=NCCN2)cc1 | inactive: -10.3% | 
80 | CCCCNC(=O)C1CCN(S(=O)(=O)CCC)CC1 | inactive: -4.71% | 
81 | COc1ccc(OC)c(CNC(=O)c2ccc(C)c(NC(=O)c3nsc4ccccc34)c2)c1 | inactive: -12% | 
82 | COc1ccc(-c2cc(C)no2)cc1S(=O)(=O)Nc1c(C)cc(C)cc1C | inactive: -13.2% | 
83 | CCOc1ccc(OCC)c(NS(=O)(=O)c2cc(-c3cnc(C)o3)ccc2OC)c1 | inactive: -10.1% | 
84 | Cc1ccc(Cn2c(CNS(=O)(=O)c3cccc([N+](=O)[O-])c3)nc3cccnc32)cc1 | inactive: -0.906% | 
85 | COC(=O)c1cc2sc(Cl)cc2n1Cc1c(C)cc(C)cc1C | inactive: -9.56% | 
86 | CCn1c2ccccc2c2cc(NC(=O)COc3ccc(C)cc3C)ccc21 | inactive: -0.509% | 
87 | COc1ccc(-c2c(C)c3ccc(O)c(CN4CCOCC4)c3oc2=O)cc1 | inactive: -8.79% | 
88 | COCCNC(=O)Nc1cc(C(=O)NCc2ccc(C(C)C)cc2)ccc1N1CCCC1 | inactive: -7.45% | 
89 | COc1cc(C2NC(=O)c3c(sc4c3CCN(C)C4)N2)cc(Br)c1OC(=O)c1ccc(C)cc1 (stereo not drawn) |  | active: 22.4 µM
90 | Cc1ccccc1-n1nc(CO)c(C(=O)NCc2cccnc2)n1 | inactive: -15.3% | 
91 | CCc1cccc(C)c1NC(=O)Cn1cnc2c1c(=O)n(C)c(=O)n2C | inactive: -27.6% | 
92 | CCOC(=O)C1CCN(C(c2ccc(SC)cc2)c2c(O)cc(C)n(Cc3ccco3)c2=O)CC1 (stereo not drawn) | inactive: -9.15% | 
93 | Cc1nc2nncn2c(Nc2ccccc2)c1C | inactive: -15.8% | 
94 | COc1ccc(OC)c(NC(=O)c2c(N3CCCC3=O)c3cc(OC)ccc3n2C)c1 | inactive: -7.21% | 
95 | CCOC(=O)c1c(-c2ccccc2)csc1NC(=O)c1cc(=O)c2ccc(C)cc2o1 | inactive: -26.5% | 
96 | CCc1nn2c(=O)cc(COC(=O)c3cccc(NC(=O)c4cccs4)c3)nc2s1 | inactive: -5.25% | 
97 | COc1cccc(C(=O)NCCc2csc(-c3ccc(Cl)cc3)n2)c1 | inactive: -3.24% | 
98 | Cc1cccc(NC(=O)CCS(=O)(=O)c2cccc3nsnc23)c1C | inactive: 9.7% | 
